Among all 310,000 compounds or so, about 2,200 (0.71%) showed an effect of 50% or more. Effects have a minus sign here. The list shows a part of the results.
What follows are compounds tested against human ether-à-go-go-related gene (hERG) potassium channel (human, UniProt Q12809) (assay: primary screen, population patch clamp on CHO cells stably expressing hERG).
human ether-à-go-go-related gene (hERG) potassium channel, sequence (Q12809 whole entry, looked up): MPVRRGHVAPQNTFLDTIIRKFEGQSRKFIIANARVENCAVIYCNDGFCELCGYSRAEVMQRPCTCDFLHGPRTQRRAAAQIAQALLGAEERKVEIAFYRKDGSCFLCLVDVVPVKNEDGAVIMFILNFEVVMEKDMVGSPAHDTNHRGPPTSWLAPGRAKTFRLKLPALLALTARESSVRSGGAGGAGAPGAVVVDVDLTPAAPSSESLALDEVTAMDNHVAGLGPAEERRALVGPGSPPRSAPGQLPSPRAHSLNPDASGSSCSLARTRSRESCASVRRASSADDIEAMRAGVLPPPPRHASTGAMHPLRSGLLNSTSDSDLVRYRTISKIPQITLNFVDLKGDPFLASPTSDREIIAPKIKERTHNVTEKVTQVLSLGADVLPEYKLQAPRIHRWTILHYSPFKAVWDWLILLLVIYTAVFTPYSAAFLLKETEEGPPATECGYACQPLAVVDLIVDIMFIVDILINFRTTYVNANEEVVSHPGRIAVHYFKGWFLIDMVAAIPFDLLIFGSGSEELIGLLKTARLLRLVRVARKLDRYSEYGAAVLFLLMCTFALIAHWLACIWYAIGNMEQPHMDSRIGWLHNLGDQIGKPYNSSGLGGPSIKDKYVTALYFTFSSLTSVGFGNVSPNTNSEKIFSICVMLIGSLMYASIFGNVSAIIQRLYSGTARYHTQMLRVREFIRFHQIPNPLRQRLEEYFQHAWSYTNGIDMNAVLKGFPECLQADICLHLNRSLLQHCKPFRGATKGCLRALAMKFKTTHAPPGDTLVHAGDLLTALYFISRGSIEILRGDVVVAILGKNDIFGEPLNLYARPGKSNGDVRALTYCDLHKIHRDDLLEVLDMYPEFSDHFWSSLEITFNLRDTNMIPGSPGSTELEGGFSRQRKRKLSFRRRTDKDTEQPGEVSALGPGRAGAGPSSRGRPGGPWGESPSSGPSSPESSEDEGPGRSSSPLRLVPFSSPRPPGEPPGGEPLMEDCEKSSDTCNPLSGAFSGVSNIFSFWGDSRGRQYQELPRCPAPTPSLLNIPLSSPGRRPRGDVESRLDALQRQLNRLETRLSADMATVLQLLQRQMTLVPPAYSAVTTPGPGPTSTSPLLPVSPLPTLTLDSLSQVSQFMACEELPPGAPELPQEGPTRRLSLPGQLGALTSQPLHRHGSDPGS

Row | Compound | hERG current change (%, negative = inhibition) at 1uM
1 | Cc1c(Cl)cccc1NC(=O)CCC(=O)NNC(=O)c1ccccc1Cl | -6.66%
2 | Cc1ccc(-c2cc(-c3n[nH]c(=S)n3C)c3ccccc3n2)cc1 | 27.9%
3 | CC1(C)COCN1C(=O)c1ccc(C#N)cc1 | 10.2%
4 | O=C(Nc1ccc2[nH]c(=O)[nH]c2c1)c1ccc(Cl)c(Cl)c1 | 15.9%
5 | Cc1ccc2nc(N/C(=N/S(=O)(=O)c3cccs3)c3ccccc3Cl)sc2c1 | -0.0403%
6 | Cc1ccc(Sc2nc3ccc(C)cn3c(=O)c2/C=N/O)cc1 | 14.1%
7 | O[C@@H]1CN(C2CCCCC2)CC[C@H]1N1CCN(CCc2ccccc2)CC1 | 17.6%
8 | COc1ccc([N+](=O)[O-])cc1NC(=O)C1CCCO1 (centres unmarked) | 13.4%
9 | COc1cc2c(cc1OC)/C(=C/C(=O)c1cccc([N+](=O)[O-])c1)NCC2 | 10.6%
10 | O=C(COC(=O)CNC(=O)C1CCCCC1)Nc1cc(C(F)(F)F)ccc1Cl | 12.1%
11 | COc1ccc(NCC(O)Cn2c(C)c(C)c3ccccc32)cc1 (centres unmarked) | 4%
12 | CCOC(=O)N1CCC(n2c(=S)[nH]c3cc(OC)c(OC)cc3c2=O)CC1 | -0.548%
13 | Cc1cc(NC(=O)c2ccccc2C)n(-c2cccc(F)c2)n1 | 10.1%
14 | COc1cc(SC)ccc1C(=O)NCCOc1ccccc1Cl | 5.01%
15 | COc1ccc(C2N3CC4(C)CN2CC(C)(C3)C4O)cc1OC (centres unmarked) | 13.1%
16 | Cc1cccc(-c2nc(C#N)c(NCc3ccco3)o2)c1 | 6.72%
17 | O=C(CSc1nnc(-c2ccc(Cl)cc2)n1CC1CCCO1)NC1CCS(=O)(=O)C1 (centres unmarked) | 7.69%
18 | Cc1ccc(CC2C(=O)N(CC(=O)O)C(=O)C2C)cc1 (centres unmarked) | -1.57%
19 | O=C(COC(=O)c1sc2ccccc2c1Cl)NCC1CCCCC1 | 3.47%
20 | COc1ccc(-c2noc(Cc3ccc(Cl)cc3)n2)cc1OC | 5.89%
21 | CC1CN(C(=O)CCC(=O)NCc2ccccc2)c2ccccc2S1 (centres unmarked) | 4%
22 | CCN(CC)C(=O)c1ccc(NC(=O)c2cc(S(=O)(=O)N3CCCCCC3)ccc2OC)cc1 | 4.29%

Row | Compound | hERG current change (%, negative = inhibition) at 1uM
23 | COC(=O)c1cc(C(=O)Nc2ccc(S(=O)(=O)NC(C)(C)C)cc2)cc([N+](=O)[O-])c1 | -2.16%
24 | CCn1c(=NC(=O)c2ccc(N3C(=O)CCC3=O)cc2)sc2c(OC)ccc(OC)c21 | 11.4%
25 | CCOc1ccc(C(=O)OCC(=O)N2CCOCC2)cc1OCC | 12.8%
26 | CCOCCCNCc1cc(Br)ccc1OCC.Cl | -9.52%
27 | COc1ccc(C)cc1NC(=O)c1ccoc1C | 7.47%
28 | CCOc1ccccc1NC(=O)c1nc(S(=O)(=O)Cc2ccccc2)ncc1Cl | 13.5%
29 | CC(C)c1ccc(S(=O)(=O)N2CCN(C(=O)CCNC(=O)Nc3ccccc3)CC2)cc1 | 7.73%
30 | O=C(NCCN1CCN(c2ccccc2)CC1)C1(S(=O)(=O)c2ccc(Cl)cc2)CC1 | -12.6%
31 | CCOC(=O)c1c(NS(=O)(=O)Cc2ccccc2)sc2c1CCCC2 | 4.35%
32 | Fc1ccc(-c2cc(C(F)(F)F)nc(NCc3cccs3)n2)cc1 | 9.77%
33 | Cc1ccc(NC(=O)NCCN2C(=O)C3C4C=CC(C4)C3C2=O)cc1 (centres unmarked) | 5.44%
34 | COc1ccc(/C=C/C(=O)N(C)c2ccccc2C(=O)O)cc1 | 1.46%
35 | COc1ccc(CN(C)C(=O)CCN=C2NS(=O)(=O)c3ccccc32)c(OC)c1 | 2.21%
36 | Nc1ccc(N2CCOCC2)c(S(=O)(=O)Nc2cc(Cl)ccc2Cl)c1 | 4.83%
37 | O=C(c1ccco1)N1CCN(c2ccc([N+](=O)[O-])cn2)CC1 | -40.2%
38 | CN(CC1CCCN(CCc2ccc(Cl)cc2)C1)C(=O)c1ccco1 (centres unmarked) | 11.1%
39 | Fc1nc(N2CCCC2)c(F)c(Oc2ccccc2Oc2c(F)c(F)nc(N3CCCC3)c2F)c1F | 6.4%
40 | Cc1cc2ncn(C(=O)N3CCCCC3)c2cc1C | 8.99%
41 | COc1ccc(CN2CCC(C(N)=O)CC2)cc1OCc1ccccc1.O=C(O)C(=O)O | 15.7%
42 | O=C1NC2(CCCCCC2)C(=O)N1Cc1ccc(F)cc1Cl | 9.12%
43 | COc1ccc(/C=C/C(=O)NC(=S)NNC(=O)c2cccs2)cc1OC | 9.55%
44 | CCOC(=O)CSc1nnc(CNc2ccc(Cl)cc2)n1Cc1ccccc1 | 8.95%
